Measurements taken from PMC6212790.
This is one part of the list. At the low end of the ranking, values are background and their order means little.

What follows are sequences tested against T1, GST-Rok-C97-191 (UniProt O34857) (assay: protein binding microarray). Conditions: Rok is a gene silencer of Bacillus subtilis; high values mean tight binding; most listed sequences are background and not binding sites; double strand, one strand shown.
T1 sequence: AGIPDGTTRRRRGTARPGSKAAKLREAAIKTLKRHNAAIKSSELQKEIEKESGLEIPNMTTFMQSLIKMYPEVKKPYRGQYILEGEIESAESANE
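Note: rank score from −0.5 (least bound) to 0.5 (best bound).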

| Sequence | binding signal |
| --- | --- |
| ACTGTGAC | 0.0996 E-score |
| ACAAGACG | -0.0474 E-score |
| ACGCCGTA | -0.129 E-score |
| AATATGGT | 0.208 E-score |
| AGTATGTA | 0.294 E-score |
| TATTCAAA | 0.0841 E-score |
| CGACTCCA | -0.0428 E-score |
| ACCGGAAT | 0.161 E-score |
| CCCGGAGA | -0.132 E-score |
| GCTATCTA | 0.333 E-score |
| TAAACAGA | -0.154 E-score |
| AGAGTCGA | -0.19 E-score |
| CCTCGGGC | -0.153 E-score |
| TACGGTCA | 0.152 E-score |
| AGTCGTAC | 0.108 E-score |
| ACCGGTGC | -0.35 E-score |
| GCGTACGA | 0.0687 E-score |
| ACTATTGG | 0.194 E-score |
| CGGGCGCC | -0.267 E-score |
| TAACATAA | 0.0145 E-score |
| CCAGCAAA | -0.315 E-score |
| CCTTATCA | 0.0932 E-score |

| Sequence | binding signal |
| --- | --- |
| CACCAATA | 0.124 E-score |
| CCACACTA | 0.248 E-score |
| CCTAGCAG | -0.174 E-score |
| ATAATCTA | 0.289 E-score |
| GTACAACA | 0.0783 E-score |
| CAGCATTA | 0.0741 E-score |
| ATTTCACC | 0.1 E-score |
| GCAGGAAC | -0.0927 E-score |
| AAAGTGTC | -0.00313 E-score |
| ACGTTACT | 0.0811 E-score |
| CTATACTA | 0.301 E-score |
| TATGAACA | 0.0539 E-score |
| CGCGGCTC | -0.318 E-score |
| CCTGTTCG | -0.0726 E-score |
| AAGAGATG | 0.0244 E-score |
| GGCAAGCC | -0.208 E-score |
| GGTCGCTA | -0.0447 E-score |
| GGTTACAA | 0.162 E-score |
| AGCTTAAA | 0.065 E-score |
| GACGCAGA | -0.227 E-score |
| ACAACACC | -0.0544 E-score |
| CACTGTTA | 0.19 E-score |

| Sequence | binding signal |
| --- | --- |
| CCCTGTCG | -0.114 E-score |
| GACCGCAA | 0.0465 E-score |
| CATACCAA | 0.212 E-score |
| CCATGCCA | -0.0511 E-score |
| ACAAGAGC | -0.183 E-score |
| CTATGTTA | 0.256 E-score |
| GACTAGAC | -0.197 E-score |
| AGTCATCC | -0.118 E-score |
| CAGTGTGG | -0.258 E-score |
| GATGCTTA | 0.0551 E-score |
| CAGTGGCC | -0.131 E-score |
| AGGCGGGA | -0.114 E-score |
| CGGATCTC | -0.0038 E-score |
| CGCCCTCC | -0.427 E-score |
| CAAAGTAA | 0.219 E-score |
| ACCGGCCT | -0.0364 E-score |
| CCTAATTA | 0.28 E-score |
| CCCCCCCA | -0.302 E-score |
| CTGGCCCC | -0.197 E-score |
| CCGTCAAC | -0.116 E-score |
| GTGCAAAA | 0.0465 E-score |
| ACCTTGCA | -0.00674 E-score |

| Sequence | binding signal |
| --- | --- |
| GCCAAACA | 0.164 E-score |
| ACAGGTAC | 0.095 E-score |
| GTTGTCCA | -0.123 E-score |
| ACTTAGAT | 0.255 E-score |
| AGTCTATA | 0.218 E-score |
| TATAGCAA | 0.162 E-score |
| GTTGGTGA | -0.0888 E-score |
| TCGTCTAA | -0.15 E-score |
| ACGGACGC | -0.335 E-score |
| TCCACAGA | -0.0457 E-score |
| CAGGGGCG | -0.376 E-score |
| AGCTTCAA | -0.0507 E-score |
| CCAGGGAA | -0.173 E-score |
| GAGCGGAA | -0.281 E-score |
| CCCGATAG | 0.127 E-score |
| CCGTGAGC | -0.253 E-score |
| CCCTCAAG | -0.306 E-score |
| CCCAGTTA | -0.234 E-score |
| AACGTTCT | 0.194 E-score |
| CGCCCGCA | -0.314 E-score |
| AACGGGCT | -0.138 E-score |
| ACGGCTCA | -0.0392 E-score |

| Sequence | binding signal |
| --- | --- |
| GTACTCAC | -0.11 E-score |
| CGTACGGC | 0.0464 E-score |
| GGGATCAC | -0.212 E-score |
| ACGGCATC | -0.0706 E-score |
| AAAGTTCC | 0.0995 E-score |
| ATTCCGGG | -0.0619 E-score |
| ACTATATC | 0.284 E-score |
| ATGGAATA | 0.0421 E-score |
| AAAAATCT | -0.0876 E-score |
| AAGTGCAC | 0.0765 E-score |
| AGTCGCCA | -0.171 E-score |
| CGTTGTTC | 0.00358 E-score |
| CGTAGGAC | -0.193 E-score |
| AGACAAAC | 0.0858 E-score |
| AAGACGCG | -0.142 E-score |
| GGGAGAAC | -0.124 E-score |
| ACGTTGCA | -0.0279 E-score |
| GCCTCGAC | -0.155 E-score |
| ATAACTTA | 0.292 E-score |
| ATACAAAG | 0.17 E-score |
| CTACAGCC | 0.138 E-score |
